{"source": "the supplement of paper PMC8728848", "assay_in_all_cases": "glycan array binding signal (z-score within array); higher = stronger binding", "settings_in_all_cases": "glycan notation: IUPAC condensed, linker removed", "key": {"[1]": {"biological_target": "Gal(b1-4)GlcNAc(b1-2)Man(a1-6)[GlcNAc(b1-2)Man(a1-3)]Man(b1-4)GlcNAc(b1-4)GlcNAc", "method_in_brief": "(§1)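 Columns mapping to the same glycan were averaged after glycan names were converted to IUPAC-condensed notation. The data come from 3228 arrays in the Consortium for Functional Glycomics database, limited to those with an available protein sequence. Binding is reported as a within-array Z-score averaged across arrays of one protein sequence and across linkers.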"}, "[2]": {"biological_target": "Gal(b1-4)GlcNAc(b1-2)Man(a1-6)[Man(a1-3)]Man(b1-4)GlcNAc(b1-4)GlcNAc", "method_in_brief": "as §1"}, "[3]": {"biological_target": "Gal(b1-4)GlcNAc(b1-2)[Gal(b1-4)GlcNAc(b1-4)]Man(a1-3)[Gal(b1-4)GlcNAc(b1-2)Man(a1-6)]Man(b1-4)GlcNAc(b1-4)GlcNAc", "method_in_brief": "as §1"}, "[4]": {"biological_target": "Gal(b1-4)GlcNAc(b1-2)[Gal(b1-4)GlcNAc(b1-4)]Man(a1-3)[Gal(b1-4)GlcNAc(b1-2)[Gal(b1-4)GlcNAc(b1-6)]Man(a1-6)]Man(b1-4)GlcNAc(b1-4)GlcNAc", "method_in_brief": "as §1"}, "[5]": {"biological_target": "Gal(b1-4)GlcNAc(b1-2)[Gal(b1-4)GlcNAc(b1-4)]Man(a1-3)[GlcNAc(b1-4)][Gal(b1-4)GlcNAc(b1-2)Man(a1-6)]Man(b1-4)GlcNAc(b1-4)GlcNAc", "method_in_brief": "as §1"}, "[6]": {"biological_target": "Gal(b1-4)GlcNAc(b1-2)[Gal(b1-4)GlcNAc(b1-4)]Man(a1-3)[GlcNAc(b1-4)][Gal(b1-4)GlcNAc(b1-2)[Gal(b1-4)GlcNAc(b1-6)]Man(a1-6)]Man(b1-4)GlcNAc(b1-4)GlcNAc", "method_in_brief": "as §1"}, "[7]": {"biological_target": "Gal(b1-4)GlcNAc(b1-2)[Gal(b1-4)GlcNAc(b1-6)]Man(a1-6)[Gal(b1-4)GlcNAc(b1-2)Man(a1-3)]Man(b1-4)GlcNAc(b1-4)GlcNAc", "method_in_brief": "as §1"}, "[8]": {"biological_target": "Gal(b1-4)GlcNAc(b1-2)[Gal(b1-4)GlcNAc(b1-6)]Man(a1-6)[Gal(b1-4)GlcNAc(b1-2)Man(a1-3)]Man(b1-4)GlcNAc(b1-4)[Fuc(a1-6)]GlcNAc", "method_in_brief": "as §1"}, "[9]": {"biological_target": "Gal(b1-4)GlcNAc(b1-2)[Gal(b1-4)GlcNAc(b1-6)]Man(a1-6)[GlcNAc(b1-4)][Gal(b1-4)GlcNAc(b1-2)Man(a1-3)]Man(b1-4)GlcNAc(b1-4)GlcNAc", "method_in_brief": "as §1"}, "[10]": {"biological_target": "Gal(b1-4)GlcNAc(b1-2)[Gal(b1-4)GlcNAc(b1-6)]Man(a1-6)[GlcNAc(b1-4)][Gal(b1-4)GlcNAc(b1-2)[Gal(b1-4)GlcNAc(b1-4)]Man(a1-3)]Man(b1-4)GlcNAc(b1-4)[Fuc(a1-6)]GlcNAc", "method_in_brief": "as §1"}, "[11]": {"biological_target": "Gal(b1-4)GlcNAc(b1-3)Gal(b1-3)GalNAc", "method_in_brief": "as §1"}, "[12]": {"biological_target": "Gal(b1-4)GlcNAc(b1-3)Gal(b1-3)GlcNAc", "method_in_brief": "as §1"}, "[13]": {"biological_target": "Gal(b1-4)GlcNAc(b1-3)Gal(b1-4)Glc", "method_in_brief": "as §1"}, "[14]": {"biological_target": "Gal(b1-4)GlcNAc(b1-3)Gal(b1-4)GlcNAc", "method_in_brief": "as §1"}, "[15]": {"biological_target": "Gal(b1-4)GlcNAc(b1-3)Gal(b1-4)GlcNAc(b1-2)Man(a1-3)[Gal(b1-4)GlcNAc(b1-3)Gal(b1-4)GlcNAc(b1-2)Man(a1-6)]Man(b1-4)GlcNAc(b1-4)GlcNAc", "method_in_brief": "as §1"}, "[16]": {"biological_target": "Gal(b1-4)GlcNAc(b1-3)Gal(b1-4)GlcNAc(b1-2)Man(a1-3)[Gal(b1-4)GlcNAc(b1-3)Gal(b1-4)GlcNAc(b1-2)Man(a1-6)]Man(b1-4)GlcNAc(b1-4)[Fuc(a1-6)]GlcNAc", "method_in_brief": "as §1"}, "[17]": {"biological_target": "Gal(b1-4)GlcNAc(b1-3)Gal(b1-4)GlcNAc(b1-2)[Gal(b1-4)GlcNAc(b1-3)Gal(b1-4)GlcNAc(b1-6)]Man(a1-6)[Gal(b1-4)GlcNAc(b1-3)Gal(b1-4)GlcNAc(b1-2)Man(a1-3)]Man(b1-4)GlcNAc(b1-4)GlcNAc", "method_in_brief": "as §1"}, "[18]": {"biological_target": "Gal(b1-4)GlcNAc(b1-3)Gal(b1-4)GlcNAc(b1-2)[Gal(b1-4)GlcNAc(b1-3)Gal(b1-4)GlcNAc(b1-6)]Man(a1-6)[Gal(b1-4)GlcNAc(b1-3)Gal(b1-4)GlcNAc(b1-2)Man(a1-3)]Man(b1-4)GlcNAc(b1-4)[Fuc(a1-6)]GlcNAc", "method_in_brief": "as §1"}, "[19]": {"biological_target": "Gal(b1-4)GlcNAc(b1-3)Gal(b1-4)GlcNAc(b1-3)Gal(b1-4)GlcNAc", "method_in_brief": "as §1"}, "[20]": {"biological_target": "Gal(b1-4)GlcNAc(b1-3)Gal(b1-4)GlcNAc(b1-3)Gal(b1-4)GlcNAc(b1-2)Man(a1-3)[Gal(b1-4)GlcNAc(b1-3)Gal(b1-4)GlcNAc(b1-3)Gal(b1-4)GlcNAc(b1-2)Man(a1-6)]Man(b1-4)GlcNAc(b1-4)GlcNAc", "method_in_brief": "as §1"}, "[21]": {"biological_target": "Gal(b1-4)GlcNAc(b1-3)Gal(b1-4)GlcNAc(b1-3)Gal(b1-4)GlcNAc(b1-2)Man(a1-3)[Gal(b1-4)GlcNAc(b1-3)Gal(b1-4)GlcNAc(b1-3)Gal(b1-4)GlcNAc(b1-2)Man(a1-6)]Man(b1-4)GlcNAc(b1-4)[Fuc(a1-6)]GlcNAc", "method_in_brief": "as §1"}, "[22]": {"biological_target": "Gal(b1-4)GlcNAc(b1-3)Gal(b1-4)GlcNAc(b1-3)Gal(b1-4)GlcNAc(b1-2)[Gal(b1-4)GlcNAc(b1-3)Gal(b1-4)GlcNAc(b1-3)Gal(b1-4)GlcNAc(b1-6)]Man(a1-6)[Gal(b1-4)GlcNAc(b1-3)Gal(b1-4)GlcNAc(b1-3)Gal(b1-4)GlcNAc(b1-2)Man(a1-3)]Man(b1-4)GlcNAc(b1-4)[Fuc(a1-6)]GlcNAc", "method_in_brief": "as §1"}}, "note": "Some of the results follow.", "data": [{"binder": "InvD YPIII (Yersinia pseudotuberculosis), B1JSC0 (protein) MIKYFSFFKKPEPIVGILPNRQSHHILPTHIRRVAWGTLLLQLFIPLSVSFSPAIAAMKASKADTMVSYSSTEPYVLGSGETVAMVAKKYGITVDELKKINIYRTFSRPFTALTTGDEIDIPRKASPFSVDNNKDNRLSVENTLAGHAVAGATALSNGDVAKSGERMVRSAASNEFNNSAQQWLSQFGTARVQLNINDDFHLDGSAADVLIPLYDNEKSILFTQLGARNKDSRNTVNMGAGVRTFQGNWMYGANTFFDNDLTGKNRRIGVGAEAWTDYLKLSANNYFGITDWHQSRDFIDYNERPANGYDLRAEAYLPSYPQLGGKAMYEKYRGDDVALFGKDNRQKNPHAITAGVNYTPIPLVTIGAEHRAGKGGQNDSNINFQLNYRLGETWQSHIDPSAVAASRTLAGSRYDLVERNNHIVLDYQKQNLVRLSLPDSLAGDPFSQLSVTAQVTATHGLERIDWQSAELMAAGGVLKQTSKNGLEITLPEYQMNRTGGNSYILNAIAYDTQGNASSQASMLITVNAQKINIANSTLVAVPINIEANNSDTSVVTLTLKDDNNIPVTGQDVTFLSPLGTLSAMTDSGNGVYTATLTAGTVSGTTAVSSNINGSALDMTPATVTLNGNSGELSITHSMLVAAPVNIEANGSDTSVVTLTLRDSNNNPVTGQTVTFAGTLGTLGAVTEGSSGVYTATLTAGIMVGTSSITASVNSTALGVTPATVTLNGDSGNLSTTNSTLVAAPVNIEANSSDTSVVTLTLRDNNNNPVTGQTVVFTSTLGTLGNVTEQASGVYTATLTAGTVSGVASLSVSVGGNALGVTPATVTLNGDSGNLSTTNSTLVAAPVNIEANSSDTSVVTLTLRDNNNNPVTGQTVNFAGTLGTLGTVSEGSSGVYTTTLTAGTVAGVASLSVNVGGNALGVTPATVTLNGNSGNLSATNSTLVAAPVNIEANSSDTSVVTLTLRDNNNNPVTGQTVAFTSTLGTLGNVTEQASGVYTATLTAGTVSGVASLSVSVNSNALGVTPATVTLNGDSGNLSTTNSTLVAAPVNIEANSSDTSVVTLTLRDNNNNPVTGQTVAFTSTLGTLGNVTEQASGLYTATLTAGTVSGVASLSVNVGGNALGVTPATVTLNGDSGNLSATNSTLVAAPVNIEANSSDTSVVTLTLRDNNNNPVTGQTVAFTSTLGTLGNVTEQASGLYTATLTAGTVSGVASLSVNVGGTALGVTPATVTLNGDSGNLSTTNSTLVAAPVNIEANSSDTSVVTLTLRDNNNNPVTGQTVAFTSTLGTLGNVTEQASGLYTATLTAGTVSGVASLSVSVNSTALGVTPATVTLNGDSGNLSTTNSTLVAAPVNIEANSSDTSVVTLTLRDNNNNPVTGQTVAFTSTLGTLGNVTEQASGVYTATLTAGTVAGVASLSVNVGGNALGVTPATVTLNGDSGNLSTTNSTLVAAPVNIEANSSDTSVVTLTLRDNNNNPVTGQTVAFTSTLGTLGNVTEQASGVYTATLTAGTVSGVASLSVSVGSSALGVTPATVTLNGDSGNLSTTNSTLVAAPVNIEANNSDTSVVTLTLRDNNNNPVTGQTVAFTSTLGTLGNVTEQASGVYTATLTAGTVSGVASLSVSVNSNALGVTPATVTLNGDSGNLSTTNSTLVAAPVNIEANSSDTSVVTLTLRDNNNNPVTGQTVVFTSTLGTLGNVTEQASGLYTATLTAGTVSGVASLSVSVGGNALGVTGNITLAPGALDAARSILAVNKPSINADDRIGSTITFTAQDAQGNAITGLDIAFMTDLENSQIMTLVDHNDGTYTANINGTQTGIANIAVQSSGATIAGLAATMVTITPGAWNTTQATPVMTVALPITTCQSSSGVYKRYYIGIVTHELYDNYGNEISGILTYNLGAGRYTTVTSQNSSVSGSNGLTRRSNSPVSHFILTSDAYTSQAACYAERIANVNVTITVTAITDDFKTSAVNKVFILGTGSN", "values": [{"measurement": "glycan array binding signal (z-score)", "setting": "[1]", "result": -0.269}, {"measurement": "glycan array binding signal (z-score)", "setting": "[2]", "result": -0.393}, {"measurement": "glycan array binding signal (z-score)", "setting": "[3]", "result": -0.227}, {"measurement": "glycan array binding signal (z-score)", "setting": "[4]", "result": -0.176}, {"measurement": "glycan array binding signal (z-score)", "setting": "[5]", "result": -0.258}, {"measurement": "glycan array binding signal (z-score)", "setting": "[6]", "result": -0.086}, {"measurement": "glycan array binding signal (z-score)", "setting": "[7]", "result": -0.006}, {"measurement": "glycan array binding signal (z-score)", "setting": "[8]", "result": -0.014}, {"measurement": "glycan array binding signal (z-score)", "setting": "[9]", "result": -0.28}, {"measurement": "glycan array binding signal (z-score)", "setting": "[10]", "result": -0.22}, {"measurement": "glycan array binding signal (z-score)", "setting": "[11]", "result": -0.131}, {"measurement": "glycan array binding signal (z-score)", "setting": "[12]", "result": -0.132}, {"measurement": "glycan array binding signal (z-score)", "setting": "[13]", "result": -0.202}, {"measurement": "glycan array binding signal (z-score)", "setting": "[14]", "result": -0.251}, {"measurement": "glycan array binding signal (z-score)", "setting": "[15]", "result": 10.1}, {"measurement": "glycan array binding signal (z-score)", "setting": "[16]", "result": 2.01}, {"measurement": "glycan array binding signal (z-score)", "setting": "[17]", "result": 0.653}, {"measurement": "glycan array binding signal (z-score)", "setting": "[18]", "result": 1.88}, {"measurement": "glycan array binding signal (z-score)", "setting": "[19]", "result": -0.253}, {"measurement": "glycan array binding signal (z-score)", "setting": "[20]", "result": 1.59}, {"measurement": "glycan array binding signal (z-score)", "setting": "[21]", "result": 0.402}, {"measurement": "glycan array binding signal (z-score)", "setting": "[22]", "result": 1.62}]}]}
